Reference: the RNAGym collection of RNA variant scans (doi:10.7554/elife.90254)
Read counts are not given, so values of variants with three or more changes are uncertain.

B1: OR4K15 (parent)
chain: GUUAACGGUCAUAGGCCAUGGAAACUAGGAGCACCAUUUCGCUGCCAGUGAAGAAAUGAACAAAGAAAAUCUGGGCCAGGCAGGCAUCAAAAGAAAUAGUCUUGCGCUCAACCAGAAAGUCUGUAAUCAUUUUAAGGGUA

Variants of: B1
Test: self-cleavage, relative activity (ratio to wild type); higher = more cleavage; in vitro, sequencing; the parent is a self-cleaving ribozyme

Variant | self-cleavage
A5U A52G A116G U132C | 1.11
U19C A66G U132C | 1.9
A22U A24G A30G C32U U37C A78G | 0.36
A30G U108C A111G A134G | 0.01
A24G A68G G106C | 0.01
U2C A24G A59G A66G U122C | 0.88
U37C U108C A110G U132A | 0.01
G44A A59G A78U | 0.34
U39A A86G U102C A116C | 0.81
A22G A54C A86G U102C | 0.92
G21A G83A A91G | 2.27
A5G A89G A118G U131C | 0.79
A4G A82U U87A | 0.25
G48U U70C U87C U122C | 0.3
A36U U39C A86G A89U U103A | 0.19
A11G G119A U130C | 1.33
U72C A90G A91G U122G | 0.25
A36U A68G G83A A90G | 0.81
G14A A56G A59U A94G | 0.36
U12C U72A U108C | 0.04
U3C A22G U130C | 1.23
A78U C88U A90G U122C | 0.12
A11U A22G U39C | 1.3
A54U A69G U124C | 0.08

Variant | self-cleavage
A22G U49C A98G | 0.22
G74A A78G U100C A117G | 0.23
A52G A82U A135U | 0.1
A62G A78G U130C | 0.1
U2C A90G U122C | 1.14
U3C U70C A92G U122C | 0.1
A22G U57A U72G | 0.21
A90G A116G U127C | 0.17
A24U U43G A78U U103C | 0.24
A13G C32U U43A A47U C113U A118G | 0.18
A47G A67G A90G A96G U100C | 1.34
A67G A90G A134G | 0.57
U39A A129U U132A | 1.26
A30G A95U A116G | 1.05
G1U A55G A62G A64G U72A U122G | 0.53
A22G U37C G48A A117G | 1.81
A51U C77U U108C | 0.02
A11G U19A U57C | 0.76
G31A U57A A82G C113A | 0.01
C61G A68G U127C | 2.49
A13G A47U C101U U122G | 0.45
A22G C45G G50A A56G A64U | 1.39
A64G A67G U130C | 0.73
U19C A30G U122C | 2.19

Variant | self-cleavage
U43C G83U A91G | 0.28
A51U A82G U108C A116G | 0.02
A52G U72A A110U | 0.21
A52U U102C A116U | 0.21
A30G A51G A52G | 0.93
A36C U37C A47U | 0.75
U37C A60G A68G A118U | 0.38
A11C A69G A95U U103C | 1.29
U57C A78G A95G C112A A114U | 0.01
G44A A67G U72C A111G | 0.01
A23G A110U A125G | 0.41
A86G A95G A96G | 1.24
A23G U38C A68G | 1.32
U39A A66G A98G U100C | 1.94
A78G U97C A126G | 0.12
G31U A54G A68G U100C | 2.53
A55G A60G A135G | 0.49
G29A A82G A116G U133C A140U | 0.46
A22G A78U A94G A117G A129C | 0.17
A52G A91G U100C U108C A114U U127C | 0.01
A24G A89G A95G U120C | 0.98
U38G A47G C76U A89G | 0.07
U26C A66G U103A A118G | 0.35
A24U A111G U122C | 0.01

Variant | self-cleavage
U2C C32A A90U | 1.07
U57A C112U U127C | 0.01
U26C U38C A90G U122C U132C | 0.64
A54G A89G U132A | 0.84
A5G A52G A98G A114G | 0.12
A33G G41U U130C | 0.41
A64G A96G A126G | 1.12
U9C A55G A69G A91G | 1.26
A4G U19C U38C | 1.16
A13G A27G U97C | 1.06
U2C A95G U108A U132C | 0.02
A22G G80A A82U | 0.13
A11G A52G A59U A78U A116U | 0.14
U103C U133C U139G | 1.57
A64U A92G U132C | 0.45
U9A A64G A96C | 0.45
A59G G106A A135G | 0.02
U9A U43C A134G | 1.72
A30G U87C U133A | 0.51
G48A A96G U130C | 1.57
A22G A52G A94G | 1.97
U43A A90G A96G C109U U124C A126G | 0.14
A5U C10A A24G | 1.83
A66G A67G A69G U100C U131C | 1.39

Variant | self-cleavage
A82G A95G G136A | 0.99
A23G C40U A52U A96G U130C | 1.48
U49C U124C U131C | 0.44
A13G G21A U43C | 0.75
A86G U102C A126G | 1.7
U12C A24G U43A A63G A117G | 1.57
A23U A64G A68G | 1.71
U9C A23G A67G A92G | 0.72
A24G U37C U108A U131C | 0.01
U3C A55G A64G | 0.9
U49C A62G A90G | 0.33
A33G U57C A94G U122A | 0.23
U19C A51U A78G A110G | 0.09
C6A A54G U70C U97C U122G | 0.09
A23C A63G A64G A95G | 0.99
A33G A86G U87C | 0.15
A5G U43C U57A A64U | 0.46
A13U A64G A66G A91G | 1.61
U9C U43A U72G A96G | 0.4
A13U U43C A56G G106A | 0.03
A18G A22U A140G | 1.46
A47U A62U A82G A92G A116U U133C | 0.09
A22G A23G A30G U103C | 0.35
A30G A47G A67G A89U U102C | 2.14

Variant | self-cleavage
U2A A116G A118U | 0.08
A30G A52G U100C A125U | 1.69
A47U U72C U127C A134G | 0.02
A13C A94G A125G | 0.43
U39A A59G A90G A94G A95C | 0.36
U12A U39C A54G C107A A111G | 0.04
A13G A96G U127C | 0.77
A68G U108A U120A | 0.02
U3C A59G U103C | 0.64
A27C U38C U132C | 1.93
U3C A52U A62G U108C A111U U127A | 0
A4G G41U A89U A118U | 1.16
U70C A86U A95G | 0.93
A69G A91G U132A | 1
A13G U19A U39C U120C | 0.54
U2A A69G U100C | 0
A5G A18U G29U A55G | 1.04
A36U A47G A51U G73A C85A A111G A125G A135G | 0.01
A22U U70C U72C A118G | 0.14
U9C A94G U127C | 1.8
A59G A64G G65A A94G U132C | 1.03
A5G A68G A118G | 0.79
A5G U57C A63U | 1.92
A23G A55G U124C | 1.19

Variant | self-cleavage
U49C A56G A68G | 1.36
G31A A91G A94G U132A | 0.75
A64G A67G U120A | 0.66
A64G G74A U87C A98U A118G | 0.11
U43C A51G A67G U70C | 0.68
A33G U43C G73A U100C | 0.16
A23G A47G A82U A89G A116G A129U | 0.02
A11G U39A A125G | 0.51
A96U U103C C105A | 0.01
A54G U70C A91G | 0.6
U39C G53U U103C | 0.31
U49C A51G U100C U130C | 1.88
A24G A55G A117C | 1.09
A24G A66G U102C | 1.18
U26C A92C U108C | 0.01
A56G A68G U103G | 0.05
A5G A33G A68G | 0.94
U3C A30G G79A | 0.17
A47U A62U C71U A94G | 0.26
A47G A55G A63G U131C A140U | 1.31
U72A A82U A116G | 0.14
C40U A54G A60G A69G U72C A134G | 0.09
A24U A62G A68G | 0.88
